Three compounds from the CheMixHub viscosity set can be followed below.

± gives the uncertainty stated by the source. For part of its entries the source gives two or more results. The other results are left out here. An entry can have further records. The values listed for one entry are repeated measurements in other runs, samples, wells, individuals or studies. Marks in square brackets tell the records apart. The letters are not those of the source and start again with each entry.

Consider `CC(=O)O`, for which the viscosity reads like this: (293.15 K, 101 kPa) 1.263 ± 0.032 mPa·s [study A] and 1.296 ± 0.034 mPa·s [study B] and 1.287 ± 0.028 mPa·s [study C] and 1.103 ± 0.14 mPa·s [study D] and 1.281 ± 0.034 mPa·s [study E]; (298.15 K, 101 kPa) 1.086 ± 0.029 mPa·s, 0.9605 ± 0.026 mPa·s, 1.098 ± 0.14 mPa·s, 1.146 ± 0.064 mPa·s, 1.28 ± 0.028 mPa·s, 1.241 ± 0.033 mPa·s, 1.155 ± 0.029 mPa·s, 1.18 ± 0.026 mPa·s, 1.174 ± 0.031 mPa·s [several studies]; (298.15 K, 101.33 kPa) 1.15 ± 0.01 mPa·s [study A] and 1.174 ± 0.004 mPa·s [study B] and 1.139 ± 0.011 mPa·s [study C] and 1.34 ± 0.013 mPa·s [study D] and 1.06 ± 0.05 mPa·s [study E]; (303.15 K, 101 kPa) 0.884 ± 0.045 mPa·s [study A] and 1.1 ± 0.029 mPa·s [study B] and 1.085 ± 0.024 mPa·s [study C] and 1.055 ± 0.13 mPa·s [study D] and 1.021 ± 0.012 mPa·s [study E]; (308.15 K, 100 kPa) 0.914 mPa·s [study A] and 0.976 ± 0.04 mPa·s [study B] and 0.98 ± 0.03 mPa·s [study C]; (308.15 K, 101.33 kPa) 1.012 ± 0.012 mPa·s [study A] and 0.966 ± 0.025 mPa·s [study B] and 0.9795 ± 0.011 mPa·s [study C] and 0.91 ± 0.05 mPa·s [study D] and 0.972 ± 0.024 mPa·s [study E]. The viscosity runs as follows: (313.15 K, 100 kPa) 0.863 mPa·s [study A] and 0.913 ± 0.037 mPa·s [study B]; (313.15 K, 101 kPa) 0.931 ± 0.023 mPa·s [study A] and 0.9601 ± 0.025 mPa·s [study B] and 0.9283 ± 0.02 mPa·s [study C] and 0.8948 ± 0.024 mPa·s [study D] and 0.905 ± 0.009 mPa·s [study E] and 0.987 ± 0.016 mPa·s [study F] and 0.9369 ± 0.025 mPa·s [study G]; (313.15 K, 101.33 kPa) 0.9076 ± 0.0064 mPa·s [study A] and 1 ± 0.05 mPa·s [study B] and 0.86 ± 0.04 mPa·s [study C] and 0.9003 ± 0.045 mPa·s [study D] and 0.907 ± 0.023 mPa·s [study E]; (318.15 K, 100 kPa) 0.822 mPa·s [study A] and 0.847 ± 0.034 mPa·s [study B] and 0.85 ± 0.03 mPa·s [study C]; (318.15 K, 101.33 kPa) 0.853 ± 0.01 mPa·s [study A] and 0.834 ± 0.022 mPa·s [study B] and 0.8536 ± 0.01 mPa·s [study C] and 0.851 ± 0.022 mPa·s [study D]; (323.15 K, 101 kPa) 0.823 ± 0.021 mPa·s [study A] and 0.823 ± 0.008 mPa·s [study B] and 0.8288 ± 0.022 mPa·s [study C] and 0.7628 ± 0.02 mPa·s [study D] and 0.8724 ± 0.023 mPa·s [study E] and 0.8228 ± 0.023 mPa·s [study F]. Also, the viscosity (323.15 K, 101.33 kPa) was 0.7644 ± 0.0054 mPa·s [study A] and 0.818 ± 0.0068 mPa·s [study B] and 0.7967 ± 0.041 mPa·s [study C] and 0.798 ± 0.02 mPa·s [study D].

As for `ClCCCl`, the viscosity (298.15 K, 101 kPa) is 0.7812 ± 0.01 mPa·s [study A] and 0.773 ± 0.009 mPa·s [study B] and 0.771 ± 0.02 mPa·s [study C] and 0.7833 ± 0.02 mPa·s [study D] and 0.7808 ± 0.0092 mPa·s [study E]; the viscosity (303.15 K, 101 kPa) is 0.7307 ± 0.0069 mPa·s [study A] and 0.7256 ± 0.019 mPa·s [study B] and 0.71 ± 0.071 mPa·s [study C] and 0.74 ± 0.019 mPa·s [study D] and 0.7295 ± 0.006 mPa·s [study E].

As for `O=S(=O)(O)O`, the viscosity (303.15 K, 101 kPa) was 22.5 ± 0.59 mPa·s [study A] and 20.01 ± 0.54 mPa·s [study B] and 210 ± 6.6 mPa·s [study C].

As a reminder, the viscosity is the resistance of a fluid to flow. Read a high viscosity as sluggish flow.
